B1: PhoQ; a variant is named by its letters at X, in order, P23837 (parent)
chain: MKKLLRLFFPLSLRVRFLLATAAVVLVLSLAYGMVALIGYSVSFDKTTFRLLRGESNLFYTLAKWENNKLHVELPENIDKQSPTMTLIYDENGQLLWAQRDVPWLMKMIQPDWLKSNGFHEIEADVNDTSLLLSGDHSIQQQLQEVREDDDDAEMTHSVAVNVYPATSRMPKLTIVVVDTIPVELKSSYMVWSWFIYVLSANLLLVIPLLWVAAWWSLRPIEALAKEVRELEEHNRELLNPATTRELTSLVRNLNRLLKSERERYDKYRTTLTDLTHSLKTPLXXLQXXLRSLRSEKMSVSDAEPVMLEQISRISQQIGYYLHRASMRGGTLLSRELHPVAPLLDNLTSALNKVYQRKGVNISLDISPEISFVGEQNDFVEVMGNVLDNACKYCLEFVEISARQTDEHLYIVVEDDGPGIPLSKREVIFDRGQRVDTLRPGQGVGLAVAREITEQYEGKIVAGESMLGGARMEVIFGRQHSAPKDE

The other results are listed elsewhere or left out.

This test covers variants of B1. The test is described as follows: enrichment ratio after two sorts for PhoP signalling (ratio (wild type AVST 3.29)); higher = more functional. To be noted: with PhoP (E. coli).
Consider SRVH, for which the enrichment ratio is at most 0.25.
Then LIMP, with at most 0.25; and TFLT, with 0.554.
Then FEVD, with at most 0.25; and ICNE, with at most 0.25; and LSFY, with 3.36.
Then RCGW, with at most 0.25.
Regarding RHGY, the enrichment ratio was at most 0.25.
Then TDSC, with 8.66; and GVAC, with at most 0.25; and GEPS, with at most 0.25.
Then MPNQ, with at most 0.25; and HKDR, with at most 0.25; and QSLW, with 0.845.
For the variant QNET, the enrichment ratio was at most 0.25.
Then HSGP, with at most 0.25.
Then PMNQ, with at most 0.25; and SIWE, with 3.02; and FTTM, with 4.35.
Then LEHD, with at most 0.25.
As to TIWC, the enrichment ratio is at most 0.25.
DLTE: the enrichment ratio is at most 0.25.
Then PQFS, with at most 0.25; and SHIA, with at most 0.25; and NIGC, with at most 0.25.
Then VKAN, with at most 0.25; and EFWD, with at most 0.25.
Turning to LCMY, the enrichment ratio is at most 0.25.
Then WSCV, with 0.762; and IRFV, with at most 0.25.
Then SFYE, with at most 0.25; and YSKW, with at most 0.25.
Take QKVN: the enrichment ratio was at most 0.25.
Then FRAP, with 0.359; and VSAI, with 3.61; and YPTH, with at most 0.25.
Then YHHF, with at most 0.25; and LFFK, with at most 0.25.
Turning to YKCS, the enrichment ratio was at most 0.25.
Then HNTH, with at most 0.25.
On to YHIQ, for which the enrichment ratio is at most 0.25.
Then LKNC, with at most 0.25; and IQMA, with at most 0.25.
Then HYYN, with at most 0.25; and PGVI, with at most 0.25.
On to TWPE, for which the enrichment ratio is at most 0.25.
Then NVSP, with at most 0.25; and PMDY, with at most 0.25.
Then SLCH, with 11.6.
As to MLAK, the enrichment ratio was at most 0.25.
In the case of PTFW, the enrichment ratio is at most 0.25.
As for IYRR, the enrichment ratio is at most 0.25.
Then PSCQ, with at most 0.25; and TERD, with at most 0.25; and YCVN, with 0.404.
For AACW, the enrichment ratio was at most 0.25.
Then MEYC, with at most 0.25; and FTDW, with at most 0.25.
Then ESWI, with at most 0.25; and GQRP, with at most 0.25; and WGYA, with at most 0.25.
Then DYLE, with at most 0.25; and LKNQ, with at most 0.25.
As for LCYN, the enrichment ratio is at most 0.25.
In the case of VIVH, the enrichment ratio is at most 0.25.
Then QFYK, with at most 0.25.
Then DSCT, with at most 0.25.
Then IMIL, with at most 0.25.
PKFS: the enrichment ratio is at most 0.25.
Then YLFG, with at most 0.25.
Then RARL, with at most 0.25; and LQAM, with at most 0.25.
Then HKYY, with at most 0.25; and SGEN, with at most 0.25; and WPHE, with at most 0.25.
With IIGW, the enrichment ratio is at most 0.25.
Then HKKY, with at most 0.25.
With IKSR, the enrichment ratio is at most 0.25.
Then IWTT, with at most 0.25.
Then TTNL, with 9.07; and DVWQ, with at most 0.25; and GMDH, with at most 0.25.
Consider FAYE, for which the enrichment ratio was at most 0.25.
As to LTYY, the enrichment ratio was at most 0.25.
Then KTNA, with at most 0.25; and MICA, with at most 0.25.
Then NKVN, with at most 0.25; and EHKW, with at most 0.25; and MYHQ, with at most 0.25.
With HPYF, the enrichment ratio is at most 0.25.
Then PRWR, with at most 0.25; and LNKT, with at most 0.25; and IYNL, with at most 0.25.
Then ACWQ, with at most 0.25; and GMAL, with 8.67; and SWYN, with at most 0.25.
For NTHP, the enrichment ratio was at most 0.25.
Then RWLK, with at most 0.25; and HHCH, with at most 0.25.
Then SARF, with at most 0.25; and NVVR, with at most 0.25.
Then NQAC, with at most 0.25; and QIPQ, with at most 0.25; and SIPL, with 10.4.
For QTRW, the enrichment ratio is at most 0.25.
Turning to RLNC, the enrichment ratio was at most 0.25.
Take FWWP: the enrichment ratio is at most 0.25.
Then VRYI, with at most 0.25; and MLRN, with at most 0.25.
Then IKMR, with at most 0.25; and NDIG, with at most 0.25; and ELLV, with at most 0.25.
Then YFGE, with at most 0.25.
Regarding RSFY, the enrichment ratio was at most 0.25.
Then GCRA, with at most 0.25.
Regarding FNDK, the enrichment ratio was at most 0.25.
Then LPAQ, with at most 0.25.
Then YSDN, with at most 0.25.
Then KDIL, with at most 0.25; and YHCV, with at most 0.25; and NNSQ, with at most 0.25.
Consider HGPF, for which the enrichment ratio is at most 0.25.
Then YSEA, with at most 0.25; and YWDY, with at most 0.25; and DQRN, with at most 0.25.
Then YTVN, with at most 0.25; and WNPH, with at most 0.25.
As to DHCW, the enrichment ratio is at most 0.25.
Then HQPL, with at most 0.25; and PGCA, with at most 0.25.
Then WTLL, with 2.9.
Then ERQG, with at most 0.25.
On to SSNA, for which the enrichment ratio was at most 0.25.
Then VIVY, with at most 0.25; and FCDV, with at most 0.25; and KPPN, with at most 0.25.
In the case of LFHN, the enrichment ratio was at most 0.25.
With QYLY, the enrichment ratio is at most 0.25.
Then LLNL, with at most 0.25.
Then NCWM, with at most 0.25; and IVLP, with at most 0.25; and SKDE, with at most 0.25.
Then ETCW, with at most 0.25; and VNSK, with at most 0.25.
For EQIS, the enrichment ratio is at most 0.25.
As to FPNK, the enrichment ratio is at most 0.25.
As for NSQK, the enrichment ratio is at most 0.25.
Then GESI, with 1.61.
Then MEEI, with at most 0.25.
Then ARFD, with at most 0.25; and GKVW, with at most 0.25.
For the variant RTCD, the enrichment ratio is at most 0.25.
Then GFMW, with at most 0.25.

The record behind these values is a collection of fitness landscapes (doi:10.1126/science.1257360).
